Measurements: publication PMC3388079

Target: T1, His6-tagged T7 RNA polymerase (bacteriophage T7), P00573
T1 chain: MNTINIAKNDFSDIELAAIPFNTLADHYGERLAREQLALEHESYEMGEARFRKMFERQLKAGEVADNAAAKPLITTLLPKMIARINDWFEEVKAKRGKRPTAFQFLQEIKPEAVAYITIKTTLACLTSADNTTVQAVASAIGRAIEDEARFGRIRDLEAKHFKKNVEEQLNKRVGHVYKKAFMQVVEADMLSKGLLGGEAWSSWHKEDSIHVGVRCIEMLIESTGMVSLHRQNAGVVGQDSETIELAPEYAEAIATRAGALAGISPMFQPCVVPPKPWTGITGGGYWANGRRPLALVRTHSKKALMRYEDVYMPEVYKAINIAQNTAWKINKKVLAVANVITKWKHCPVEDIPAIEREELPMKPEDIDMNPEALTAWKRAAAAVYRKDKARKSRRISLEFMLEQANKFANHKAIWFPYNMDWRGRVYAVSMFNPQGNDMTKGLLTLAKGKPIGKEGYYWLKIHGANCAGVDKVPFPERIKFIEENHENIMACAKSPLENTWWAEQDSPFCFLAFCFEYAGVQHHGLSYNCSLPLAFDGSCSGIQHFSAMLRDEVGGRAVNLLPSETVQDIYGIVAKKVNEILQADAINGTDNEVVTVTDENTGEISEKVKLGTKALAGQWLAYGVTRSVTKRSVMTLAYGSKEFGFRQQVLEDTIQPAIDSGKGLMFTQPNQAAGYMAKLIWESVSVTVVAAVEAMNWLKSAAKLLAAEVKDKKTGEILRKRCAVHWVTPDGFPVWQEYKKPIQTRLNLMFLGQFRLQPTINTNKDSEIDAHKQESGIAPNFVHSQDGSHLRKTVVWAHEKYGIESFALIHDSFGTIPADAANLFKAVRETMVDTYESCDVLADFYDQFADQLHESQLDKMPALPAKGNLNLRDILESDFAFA
Assay: fluorescence correlation spectroscopy; 2 nM ECs on Cy3B-labelled 70-bp template with 0.1-0.54 µM unlabelled ECs on 452-bp template (RNAP up to 1.75 µM); buffer LS1, 25°C; diffusion time of the labelled ECs, single-species fit
Details: remark: other sources report otherwise

Kd: > 1000 nM
B1: His6-tagged T7 RNA polymerase, P00573 1-883 (enzyme)
chain: MNTINIAKNDFSDIELAAIPFNTLADHYGERLAREQLALEHESYEMGEARFRKMFERQLKAGEVADNAAAKPLITTLLPKMIARINDWFEEVKAKRGKRPTAFQFLQEIKPEAVAYITIKTTLACLTSADNTTVQAVASAIGRAIEDEARFGRIRDLEAKHFKKNVEEQLNKRVGHVYKKAFMQVVEADMLSKGLLGGEAWSSWHKEDSIHVGVRCIEMLIESTGMVSLHRQNAGVVGQDSETIELAPEYAEAIATRAGALAGISPMFQPCVVPPKPWTGITGGGYWANGRRPLALVRTHSKKALMRYEDVYMPEVYKAINIAQNTAWKINKKVLAVANVITKWKHCPVEDIPAIEREELPMKPEDIDMNPEALTAWKRAAAAVYRKDKARKSRRISLEFMLEQANKFANHKAIWFPYNMDWRGRVYAVSMFNPQGNDMTKGLLTLAKGKPIGKEGYYWLKIHGANCAGVDKVPFPERIKFIEENHENIMACAKSPLENTWWAEQDSPFCFLAFCFEYAGVQHHGLSYNCSLPLAFDGSCSGIQHFSAMLRDEVGGRAVNLLPSETVQDIYGIVAKKVNEILQADAINGTDNEVVTVTDENTGEISEKVKLGTKALAGQWLAYGVTRSVTKRSVMTLAYGSKEFGFRQQVLEDTIQPAIDSGKGLMFTQPNQAAGYMAKLIWESVSVTVVAAVEAMNWLKSAAKLLAAEVKDKKTGEILRKRCAVHWVTPDGFPVWQEYKKPIQTRLNLMFLGQFRLQPTINTNKDSEIDAHKQESGIAPNFVHSQDGSHLRKTVVWAHEKYGIESFALIHDSFGTIPADAANLFKAVRETMVDTYESCDVLADFYDQFADQLHESQLDKMPALPAKGNLNLRDILESDFAFA
